Measurements from PubChem BioAssay AID493208 (National Center for Advancing Translational Sciences (NCATS), 2011).
Screen size: about 44,000 compounds; about 340 (0.77%) were called active. About 5% were inconclusive and are not listed. Calls follow the shape of the dose curve; as a rule, active = well fitted inhibition curve with a large enough effect; inconclusive = small, poorly fitted or top-dose-only effect; inactive = flat fitted curve, though single readings scatter. Some of the results follow.

Experiment: Acumen qHTS Assay for Inhibitors of the mTORC1 Signaling Pathway in MEF (Tsc2-/-, p53-/-) Cells: Sytravon;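 also: plate controls were DMSO for no effect and rapamycin for full effect; nearly all actives have a fitted effect of over 50% in size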
Settings: phospho-rpS6 immunofluorescence/PI, 24 h; series mostly up to 38.3 µM; activity change, negative = inhibition: at the top concentration
Outline: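 Tsc2-/-, p53-/- mouse embryonic fibroblasts (empty-vector line) exposed to compound 24 hrs at 37 C, fixed, immunostained for phospho-rpS6 and counterstained with propidium iodide. Acumen laser scanning gives % positive cells from Alexa 488/PI ratio, thresholded using 7.5 nM rapamycin; PI count gives viability.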

Structure (SMILES) | activity change, negative = inhibition
CCn1ccc2cc(S(=O)(=O)N3CCC(C(=O)NCc4ccc(OC)cc4)CC3)ccc21 | inactive: 0.983%
Cc1ccc2nc(-c3ccc(Cl)c(NC(=O)c4cccc([N+](=O)[O-])c4C)c3)oc2c1 | inactive: -1.04%
Cc1ccccc1CN1C(=O)c2ccccc2Sc2ccc(C(=O)OCc3ccco3)cc21 | inactive: 0%
COc1cc(/C=C/c2nc3cc(Cl)ccc3c(=O)n2-c2cccc(C(F)(F)F)c2)cc(OC)c1OC | inactive: 9.64%
COc1ccc(Cn2c(SCC(=O)Nc3ccc(OC)cc3)nc3ccccc32)cc1 | inactive: 4.11%
O=C(COCc1cc(-c2ccco2)on1)Nc1cccc(O)c1 | inactive: -5.4%
Cn1c(=O)c(=O)n(C)c2cc(S(=O)(=O)CCC(=O)Nc3cccc(C(F)(F)F)c3)ccc21 | inactive: -1.21%
COc1cc(OC)c(N(C)C(=O)C2CCCN(c3ncnc4c3nc3n4CCCCC3)C2)cc1Cl (stereo not given) | inactive: 0.0361%
Cc1ccc(-c2nc3c(cnn3-c3ccccc3)c(=O)n2-c2cccc(Cl)c2)cc1 | inactive: 9.77%
CN(C)S(=O)(=O)c1ccc2c(c1)N(CC(=O)N1CCN(c3cccc(Cl)c3)CC1)CCS2 | inactive: -2.05%
COc1cc(NC(=O)Nc2nnc(N3CCCCCC3)s2)cc(OC)c1 | inactive: 0.778%
CC1CCCN(Cc2c(O)ccc3c(=O)c(Oc4ccc(C(C)(C)C)cc4)c(C(F)(F)F)oc23)C1 (stereo not given) | inactive: 1.75%
Cc1c(NC(=O)CC(C)C)cccc1-c1nc2cccnc2s1 | inactive: -0.974%
O=C(CSc1cn(CCNC(=O)c2ccccc2F)c2ccccc12)Nc1ccccc1F | inactive: -2.33%
COc1cccc(-n2c(SCC(=O)Nc3cccc(Cl)c3)nc3c(oc4ccccc43)c2=O)c1 | inactive: 0.997%
COc1ccc(/C=C\C(=O)NC2CC(=O)N(c3ccc(F)cc3)C2)cc1OC (stereo not given) | inactive: -0.622%
CCOc1ccccc1CNC(=O)c1ccc(-c2nc(CSc3ccc(C)cc3)c(C)o2)cc1 | inactive: -1.57%
COc1ccc(-n2c(=O)c3c(C)c(C)sc3n(CC(=O)NCc3ccc(C)cc3)c2=O)c(OC)c1 | inactive: 5.87%
O=C(NCc1ccc(F)cc1)C1CCCN(c2ncnc3onc(-c4ccc(F)cc4)c23)C1 (stereo not given) | inactive: 4.42%
COc1ccc(Cl)cc1NC(=O)CSC1=Nc2ccccc2C2=NC(CC(=O)NC3CCCCC3)C(=O)N12 (stereo not given) | inactive: 2.22%
CCOC(=O)CNC(=O)c1ccc(-c2nn(C)c(=O)c3ccccc23)cc1 | inactive: -12.4%
CCc1ccc(NCc2cc3ccc(OC)cc3n(CC(=O)Nc3ccc(C(C)C)cc3)c2=O)cc1 | inactive: -18.9%
Cc1ccc(NC(=O)c2ccc3oc(=O)c(S(=O)(=O)c4ccccc4)cc3c2)cc1C | inactive: 2.06%
Cc1ccc(NC(=O)Cn2nnc(-c3nc(-c4ccncc4)no3)c2N)c(C)c1 | inactive: -7.2%

Structure (SMILES) | activity change, negative = inhibition
COc1ccccc1NC(=O)C1=C(C)Nc2nc(SCc3ccc(Cl)cc3)nn2C1c1ccccc1Cl (stereo not given) | inactive: -14.3%
CCOC(=O)C1CCN(C(=O)CN2c3ccc(C(C)C)cc3-c3ccccc3S2(=O)=O)CC1 | inactive: -0.144%
CCOc1ccc(OC(=O)c2cn(-c3cccc(OC)c3)c(=O)c3ccccc23)cc1 | inactive: 0.778%
CC1CCN(C(=O)c2cc3c(=O)n(C)c4ccccc4c3s2)CC1 | inactive: -16.3%
COc1cc(C2NC(=O)N(C)C3=C2C(=O)N(c2cccc(Cl)c2)C3)ccc1O (stereo not given) | inactive: 0.539%
CCOC(=O)c1c(NC(C)=O)c2c3c(sc2n1Cc1ccc(Cl)cc1)CCCC3 | inactive: -0.594%
CC(=O)c1cccc(NC(=O)C2=CC(c3ccc4c(c3)OCO4)=NS(=O)(=O)N2C)c1 | inactive: -0.155%
CC1CCCCN1CCCNC(=O)c1[nH]c2ccccc2c1Sc1ccc(Cl)cc1 (stereo not given) | inactive: -2.34%
COc1ccccc1CNC(=O)CCC1N=C2c3ccccc3N=C(SCC(N)=O)N2C1=O (stereo not given) | inactive: 2.29%
Fc1ccccc1-n1ncc2c1ncn1nc(-c3ccccc3Cl)nc21 | inactive: 3.65%
Cc1cccc(CNC(=O)C(=O)Nc2ccccc2C)c1 | inactive: 2.89%
Cc1ccc(CNC(=O)c2ccc(CSCc3ccccc3Cl)o2)cc1 | inactive: -1.39%
Cc1cccc(C)c1NC(=O)CSc1nc2ncccc2o1 | inactive: 1.28%
Cc1ccc(S(=O)(=O)NCC(c2ccc(N(C)C)cc2)N2CCc3ccccc32)cc1C (stereo not given) | inactive: -13.8%
CC(=O)N1CCc2cc(CNC(=O)Nc3cc(Cl)ccc3C)ccc21 | inactive: 0.679%
COc1ccc(Cn2c(CCC(=O)Nc3cccc(OC)c3)nc3cccnc32)cc1 | inactive: -4.41%
CCc1ccc(CNC(=O)C2CCN(c3nc4ccccc4nc3C(F)(F)F)CC2)cc1 | inactive: -5.11%
COC(=O)Cc1c(C)c2cc3c(c(C)c2oc1=O)OCN(CCc1ccccc1F)C3 | inactive: 1.46%
CCN1C(=O)c2ccccc2Sc2ccc(NC(=O)Nc3ccccc3OC)cc21 | inactive: -12.5%
Cc1ccc(NC(=O)c2c(NC(=O)Cc3ccccc3)sc3c2CCC3)cc1 | inactive: 0.401%
COc1ccc2cc(-c3nc(Cl)c4c5c(sc4n3)CCCC5)c(=O)oc2c1 | inactive: -13.1%
CN(C)c1ccc(-c2nc3cnccn3c2Nc2cccc(C(F)(F)F)c2)cc1 | inactive: -0.741%
COc1cccc(CNc2nccn(-c3cc(C)cc(C)c3)c2=O)c1 | inactive: 8.21%
Cc1cc2c(cc1S(=O)(=O)CCC(=O)N1CCCC(C)C1)OCC(=O)N2 (stereo not given) | inactive: -1.63%

Structure (SMILES) | activity change, negative = inhibition
CCCCN(CCCNC(=O)c1ccc(Sc2ccc(Cl)cc2)c(NC(C)=O)c1)c1ccccc1 | inactive: 11.2%
Cc1ccc(NC(=O)CSC2=Nc3ccccc3C3=NC(Cc4ccccc4)C(=O)N23)cc1C (stereo not given) | inactive: 2.41%
Cc1ccc(-n2ncc(C(=O)NCCN3CCOCC3)c2C2CCN(C(=O)OC(C)(C)C)CC2)c(C)c1 | inactive: 0.833%
COCCn1c(CCC(=O)Nc2ccc(C)c(Cl)c2)nc2cccnc21 | inactive: 0.757%
Cc1c(Cl)cccc1NC(=O)Cn1cc(C(=O)C2CCCCC2)c2ccccc21 | inactive: -22.8%
CCSc1ncc(Cl)c(C(=O)Nc2ccc(S(=O)(=O)N3CCC(C)CC3)cc2)n1 | inactive: -16.6%
Clc1ccc2nc(NCc3ccccc3)c3nncn3c2c1 | inactive: 0.677%
COc1ccccc1CNC(=O)CCc1c(C)nc2c(c(C)nn2-c2ccc(C)c(C)c2)c1C | inactive: -13.2%
CC1CCC(NC(=O)c2ccc3c(c2)N(Cc2ccccc2)C(=O)c2ccccc2S3(=O)=O)CC1 (stereo not given) | inactive: -2.53%
CCCCn1c(=N)c(S(=O)(=O)c2ccc(Cl)cc2)cc2c(=O)n3cccc(C)c3nc21 | inactive: -14%
CC(C)(C)OC(=O)N1CCC(c2c(C(=O)NCc3ccccc3)cnn2-c2ccccc2)CC1 | inactive: 3.13%
CCc1ccc(CNC(=O)c2cc3c(=O)n(CC)c4ccccc4c3s2)cc1 | inactive: -7.38%
Cc1cccc(Nc2c(-c3cccs3)nc3nc(C)cc(C)n23)c1 | inactive: -19%
O=C(NC(=O)c1ccccc1)Nc1ccc(-n2nc(C(F)(F)F)cc2C(F)(F)F)cc1 | inactive: -2.02%
COc1ccc(NC(=O)CN(C)S(=O)(=O)c2ccc3c(c2)CCC(=O)N3)c(OC)c1 | inactive: -14.1%
COc1ccc(OC)c(NC(=O)Cn2c(=O)n(CC3CCCO3)c(=O)c3cc(OC)c(OC)cc32)c1 (stereo not given) | inactive: -19.3%
CCOc1ccccc1CNC(=O)CN1C(=O)CSc2ccc(S(=O)(=O)N3CCOCC3)cc21 | inactive: 9.98%
CCc1ccc(NC(=O)CSc2nc3c(sc4ccccc43)c(=O)n2CCCOC)cc1 | inactive: -5.54%
Cc1ccc(CNC(=O)c2cnc(N3CCCCC3)c3ccccc23)cc1 | inactive: -0.0959%
O=C(c1ccc2c(c1)CCN2S(=O)(=O)c1ccccc1)N1CCN(c2cccc(Cl)c2)CC1 | inactive: -9.71%
CCOC(=O)CNc1nc2ccccc2n2c(C)nnc12 | inactive: -0.369%
Cc1ccc(C)c(OCCn2cc(C(=O)c3cccs3)c3ccccc32)c1 | inactive: -0.0726%
O=[N+]([O-])c1ccc(S(=O)(=O)NCc2nc3cccnc3n2Cc2ccccc2Cl)cc1 | inactive: -5.16%
Cc1cccc(C(=O)N2CCc3cc(CNC(=O)c4ccc(Br)o4)ccc32)c1 | inactive: -4.35%

Structure (SMILES) | activity change, negative = inhibition
COc1ccc(C)cc1NC(=O)Cn1c(=O)nc(-c2ccccc2F)c2cc(Cl)ccc21 | inactive: 0%
COC(=O)c1cc(NC(=O)C2CCCN(S(=O)(=O)c3c(C)n[nH]c3C)C2)cc(C(=O)OC)c1 (stereo not given) | inactive: 0.385%
O=c1nc2c(-c3ccc(F)cc3Cl)n[nH]n2c2ccccc12 | inactive: 0.674%
Cc1c(C(=O)OCC2CCCCC2)[nH]c2c1C(=O)CC(c1ccc(F)cc1)C2 (stereo not given) | inactive: 1.15%
N#Cc1cccc(Nc2ncnc3c2cnn3-c2cccc(Cl)c2)c1 | inactive: -13%
Cc1ccc(Cl)cc1-n1ncc2c(NC3CCCCC3)ncnc21 | inactive: -0.334%
Cc1cccc2sc(N3CCN(C(=O)CS(=O)(=O)c4ccc(F)cc4)CC3)nc12 | inactive: -5.86%
O=C(CSc1nncn2c1cc1occc12)Nc1ccccc1C(F)(F)F | inactive: -22.5%
CCc1ccccc1NC(=O)CN(c1cccc(C)c1C)S(C)(=O)=O | inactive: 2.08%
Cc1ccc(C(=O)O)cc1-n1c(C)ccc1-c1ccccc1 | inactive: 4.26%
CCOC(=O)c1c(C)[nH]c(CCC(=O)Nc2c(Cl)cc(OC)cc2OC)c1C | inactive: -0.689%
CCCc1nc2nc(C)c(NS(=O)(=O)c3ccc(F)cc3)c(=O)n2[nH]1 | inactive: -0.0824%
Cc1cc(C(=O)N2CCN(c3ccc(F)cc3)CC2)c2c(C)nn(-c3cccc(Cl)c3C)c2n1 | inactive: -0.196%
CCc1ccc(S(=O)(=O)c2cnc3ccc(OC)cc3c2N2CCCC(C)C2)cc1 (stereo not given) | inactive: -4.88%
COc1cc(OC)c2c(C)c(CC(=O)NCCc3ccccc3OC)c(=O)oc2c1 | inactive: 0.324%
COc1ccc(CNC(=O)Cn2c(=O)nc(-c3ccccc3F)c3cc(Cl)ccc32)cc1OC | inactive: 13.6%
COC(=O)c1cccc(Nc2c(-c3ccc(OC)cc3)nc3nc[nH]n23)c1 | inactive: -7.85%
CCOC(=O)c1ccc(NC(=O)C(CC)Sc2nnc3c4ccccc4n(C)c3n2)cc1 (stereo not given) | inactive: 3.65%
Cc1ccc(C)c(NC(=O)Cn2nnc(C(=O)NCCc3ccccc3)c2N)c1 | inactive: 4.04%
CCOC(=O)c1cc(NC(=O)c2ccccc2)c(=O)n2c1oc1ccc(Cl)cc12 | inactive: -6.41%
CCOc1ccccc1CNS(=O)(=O)c1ccc(-c2cnc(C3CC3)o2)cc1 | inactive: -9.55%
COc1ccc(-c2noc(-c3nnn(-c4ccc(C)cc4C)c3C)n2)cc1 | inactive: 0%
COc1ccc(NC(=O)CSC2=Nc3ccccc3C3=NC(CCC(=O)NC4CCCCC4)C(=O)N23)cc1Cl (stereo not given) | inactive: 3.23%
